This is one part of the list. The list includes weakly bound sequences.

This assay has as its target T1, MBP-FoxP3dN (UniProt Q99JB6).
T1 sequence: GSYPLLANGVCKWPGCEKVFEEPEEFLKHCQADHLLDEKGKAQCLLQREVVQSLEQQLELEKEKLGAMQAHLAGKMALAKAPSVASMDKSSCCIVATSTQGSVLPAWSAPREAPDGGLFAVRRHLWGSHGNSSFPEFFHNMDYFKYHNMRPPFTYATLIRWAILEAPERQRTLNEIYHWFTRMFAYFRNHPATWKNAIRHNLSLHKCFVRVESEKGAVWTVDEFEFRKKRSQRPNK
As to the kind of experiment: PD-seq (MBP pull-down with sequencing). Particulars: 20 mM Tris-HCl pH 7.5, 100 mM NaCl, 1.5 mM MgCl2, 0.4 uM protein, 0.1 uM dsDNA library, 30 min, room temperature, amylose pull-down; high values mean tight binding; double strand, one strand shown.
Take “GATGATTGTTCTCCCAGCTGATGAATTTTACCGTTCGAGTAAACAAATTTTCCTAATCTTTCTGTTCAAGCGCCATCTAC”: the binding signal (RPM ratio (pull-down/input)) amounted to 0.311.

In the case of “GATGATTGTTCTCCCAGCTGATGAATTCACGCGGTCGAGTAAACAAATTTTCCTAATCTTTCTGTTCAAGCGCCATCTAC”, the binding signal (RPM ratio (pull-down/input)) was found to be 0.589.

For “GATGATTGTTCTCCCAGCTGATGAATTGCCCGTATCGAGTAAACAAATTTTCCTAATCTTTCTGTTCAAGCGCCATCTAC”, the binding signal (RPM ratio (pull-down/input)) came out at 0.615.

In the case of “GATGATTGTTCTCCCAGCTGATGAATTTAAGGTTTCGAGTAAACAAATTTTCCTAATCTTTCTGTTCAAGCGCCATCTAC”, the binding signal (RPM ratio (pull-down/input)) worked out at 0.51.

With “GATGATTGTTCTCCCAGCTGATGAATTGGATTAGTCGAGTAAACAAATTTTCCTAATCTTTCTGTTCAAGCGCCATCTAC”, the binding signal (RPM ratio (pull-down/input)) worked out at 0.801.

In the case of “GATGATTGTTCTCCCAGCTGATGAATTAAGAGAGTCGAGTAAACAAATTTTCCTAATCTTTCTGTTCAAGCGCCATCTAC”, the binding signal (RPM ratio (pull-down/input)) turned out to be 0.224.

“GATGATTGTTCTCCCAGCTGATGAATTCCGAGCGTCGAGTAAACAAATTTTCCTAATCTTTCTGTTCAAGCGCCATCTAC”: the binding signal (RPM ratio (pull-down/input)) was 0.4.

Take “GATGATTGTTCTCCCAGCTGATGAATTAACCTATTCGAGTAAACAAATTTTCCTAATCTTTCTGTTCAAGCGCCATCTAC”: the binding signal (RPM ratio (pull-down/input)) amounted to 0.33.

As to “GATGATTGTTCTCCCAGCTGATGAATTAGTGACGTCGAGTAAACAAATTTTCCTAATCTTTCTGTTCAAGCGCCATCTAC”, the binding signal (RPM ratio (pull-down/input)) is 0.653.

As to “GATGATTGTTCTCCCAGCTGATGAATTCCTTTCGTCGAGTAAACAAATTTTCCTAATCTTTCTGTTCAAGCGCCATCTAC”, the binding signal (RPM ratio (pull-down/input)) was 0.376.

With “GATGATTGTTCTCCCAGCTGATGAATTGTGCGCGTCGAGTAAACAAATTTTCCTAATCTTTCTGTTCAAGCGCCATCTAC”, the binding signal (RPM ratio (pull-down/input)) came out at 3.85.

As to “GATGATTGTTCTCCCAGCTGATGAATTTATGTGATCGAGTAAACAAATTTTCCTAATCTTTCTGTTCAAGCGCCATCTAC”, the binding signal (RPM ratio (pull-down/input)) is 1.21.

Regarding “GATGATTGTTCTCCCAGCTGATGAATTCTGACTCTCGAGTAAACAAATTTTCCTAATCTTTCTGTTCAAGCGCCATCTAC”, the binding signal (RPM ratio (pull-down/input)) worked out at 1.67.

As for “GATGATTGTTCTCCCAGCTGATGAATTCTTAGCCTCGAGTAAACAAATTTTCCTAATCTTTCTGTTCAAGCGCCATCTAC”, the binding signal (RPM ratio (pull-down/input)) was 0.373.

Turning to “GATGATTGTTCTCCCAGCTGATGAATTTGTTTCGTCGAGTAAACAAATTTTCCTAATCTTTCTGTTCAAGCGCCATCTAC”, the binding signal (RPM ratio (pull-down/input)) was determined as 5.96.

For the sequence “GATGATTGTTCTCCCAGCTGATGAATTAATCTCATCGAGTAAACAAATTTTCCTAATCTTTCTGTTCAAGCGCCATCTAC”, the binding signal (RPM ratio (pull-down/input)) was found to be 0.347.

In the case of “GATGATTGTTCTCCCAGCTGATGAATTTATTTGTTCGAGTAAACAAATTTTCCTAATCTTTCTGTTCAAGCGCCATCTAC”, the binding signal (RPM ratio (pull-down/input)) came out at 6.33.

For the sequence “GATGATTGTTCTCCCAGCTGATGAATTTTCAGGATCGAGTAAACAAATTTTCCTAATCTTTCTGTTCAAGCGCCATCTAC”, the binding signal (RPM ratio (pull-down/input)) stood at 0.181.

On to “GATGATTGTTCTCCCAGCTGATGAATTCGGAGTCTCGAGTAAACAAATTTTCCTAATCTTTCTGTTCAAGCGCCATCTAC”, for which the binding signal (RPM ratio (pull-down/input)) came out at 1.21.

For “GATGATTGTTCTCCCAGCTGATGAATTATTCTGGTCGAGTAAACAAATTTTCCTAATCTTTCTGTTCAAGCGCCATCTAC”, the binding signal (RPM ratio (pull-down/input)) was 0.246.

Consider “GATGATTGTTCTCCCAGCTGATGAATTAATCCCCTCGAGTAAACAAATTTTCCTAATCTTTCTGTTCAAGCGCCATCTAC”, for which the binding signal (RPM ratio (pull-down/input)) came out at 0.379.

On to “GATGATTGTTCTCCCAGCTGATGAATTAGAGTACTCGAGTAAACAAATTTTCCTAATCTTTCTGTTCAAGCGCCATCTAC”, for which the binding signal (RPM ratio (pull-down/input)) amounted to 0.674.

For the sequence “GATGATTGTTCTCCCAGCTGATGAATTCACGCATTCGAGTAAACAAATTTTCCTAATCTTTCTGTTCAAGCGCCATCTAC”, the binding signal (RPM ratio (pull-down/input)) worked out at 5.67.

As for “GATGATTGTTCTCCCAGCTGATGAATTCCTACCGTCGAGTAAACAAATTTTCCTAATCTTTCTGTTCAAGCGCCATCTAC”, the binding signal (RPM ratio (pull-down/input)) came out at 0.225.

For “GATGATTGTTCTCCCAGCTGATGAATTGGCAAGCTCGAGTAAACAAATTTTCCTAATCTTTCTGTTCAAGCGCCATCTAC”, the binding signal (RPM ratio (pull-down/input)) came out at 0.36.

As to “GATGATTGTTCTCCCAGCTGATGAATTGTGCGCATCGAGTAAACAAATTTTCCTAATCTTTCTGTTCAAGCGCCATCTAC”, the binding signal (RPM ratio (pull-down/input)) was 2.13.

In the case of “GATGATTGTTCTCCCAGCTGATGAATTTCGATAATCGAGTAAACAAATTTTCCTAATCTTTCTGTTCAAGCGCCATCTAC”, the binding signal (RPM ratio (pull-down/input)) was 0.411.

For “GATGATTGTTCTCCCAGCTGATGAATTGCAACTTTCGAGTAAACAAATTTTCCTAATCTTTCTGTTCAAGCGCCATCTAC”, the binding signal (RPM ratio (pull-down/input)) was 2.55.

As to “GATGATTGTTCTCCCAGCTGATGAATTACTTATTTCGAGTAAACAAATTTTCCTAATCTTTCTGTTCAAGCGCCATCTAC”, the binding signal (RPM ratio (pull-down/input)) was determined as 0.614.

With “GATGATTGTTCTCCCAGCTGATGAATTGCACCTTTCGAGTAAACAAATTTTCCTAATCTTTCTGTTCAAGCGCCATCTAC”, the binding signal (RPM ratio (pull-down/input)) came out at 1.17.

“GATGATTGTTCTCCCAGCTGATGAATTCCATCCATCGAGTAAACAAATTTTCCTAATCTTTCTGTTCAAGCGCCATCTAC”: the binding signal (RPM ratio (pull-down/input)) was found to be 0.388.

The values above are taken from publication PMC12820563.
